Results reported in the RNAGym collection of RNA variant scans (doi:10.7554/elife.90254).
The source gives no read counts; variants with many changes may rest on few reads.

B1: LINE1-mini (parent)
chain: GGCAGAGCUCAACACAGCGUGGCAAAGUGGCUGUGGCUAGACUGCC

Variants of: B1
Assay: self-cleavage, relative activity (ratio to wild type); higher = more cleavage; in vitro, sequencing; the parent is a self-cleaving ribozyme
For GGCAGAGCUCAAAACAGCGAGGCAAAGUGACUGUGGCUAGACUGCC [C13A U20A G30A], the self-cleavage was 0.07.
For GGCAGAGCUCAAAACAGCGUGGAAAAGAGGGUUUGGCUGGACUGCC [C13A C23A U28A C31G G33U A39G], the self-cleavage was 0.03.
In the case of GGCAGAGCUCAAAACAGCGUGGCAAAGUGGCUGUGGCUUGACUGCU [C13A A39U C46U], the self-cleavage is reported as 0.07.
For GGCAGAGCUCAAAACAGCUUGGCAAAGUGGCUGUGGCUAGACUGCA [C13A G19U C46A], the self-cleavage was 0.02.
Variant GGCAGAGCUCAAAACAGCGUGGCAUAGUGGCUGUGGCCAGACUGCC [C13A A25U U38C] has a self-cleavage of 0.03.
Work on GGCAGAGCUCAAAACAGCGUGGCAAAGUGGCUGUGGAUAGACUGAC [C13A C37A C45A] yielded a self-cleavage of 0.01.
Variant GGCAGAGCUCAAAACAGCGUGGCAAAGUUGCUGUGGCUAGAGUGCC [C13A G29U C42G] has a self-cleavage of 0.29.
GGCAGAGCUCAAAACAGUGUGGCAAAGUGGCUGCGGCUAGACUGGC [C13A C18U U34C C45G] gave a self-cleavage of 0.06.
For GGCAGAGCUCAAAACAUCGUGGCAAAGUGGCUGUGGCUAGACCGCC [C13A G17U U43C], the self-cleavage was 0.11.
In the case of GGCAGAGCUCAAAACAGCGUGCCAAAGCGGCUGUGGCUAGACUGCC [C13A G22C U28C], the self-cleavage is reported as 0.03.
GGCAGAGCUCAAAAUAGCGUGGCAAAGUGGCUGUGGCUCGACUGCA [C13A C15U A39C C46A] showed a self-cleavage of 0.03.
GGCAGAGCUCAAAACAAUGUGGCAAAGUGGCGGUGGCUAGACUGCC [C13A G17A C18U U32G] gave a self-cleavage of 0.06.
With GGCAGAGCUCAAAACAGCGUGGCAAAGUGGCUGUGGUUAUACUGCC [C13A C37U G40U] the self-cleavage was 0.18.
With GGCAGAGCUCAAAACAGCGUGUGAAAGUGGCUGUGGCUAGACUGCC [C13A G22U C23G] the self-cleavage was 0.42.
Work on GGCAGAGCUCAAAACAGUGUGUCAAAGUGGGUGUGGCUAGACUGCC [C13A C18U G22U C31G] yielded a self-cleavage of 0.06.
For GGCAGAGCUCAAAACAGCGUGGCAAUGUGGCUGUGGCUAGAGUGCC [C13A A26U C42G], the self-cleavage was 0.31.
Work on GGCAGAGCUCAAAACAGAGUGGCAAAGUGGCUCUGGCUAGACUGCC [C13A C18A G33C] yielded a self-cleavage of 0.01.
Work on GGCAGAGCUCAAAACAGCGUGGCACAGUGGCUGUGGCUAGACUACC [C13A A25C G44A] yielded a self-cleavage of 0.01.
GGCAGAGCUCAAAACAGCGUGGCAUAGUGGCUUUGGCUAGACUGAC [C13A A25U G33U C45A] showed a self-cleavage of 0.02.
GGCAGAGCUCAAAACACCGUGGCAAAGUGGCUGCGUCUCGACUGCC [C13A G17C U34C G36U A39C] gave a self-cleavage of 0.
GGCAGAGCUCAAAACACCGUGGCAAAGUGGAUGUGGCUAGACUGCC [C13A G17C C31A] gave a self-cleavage of 0.05.
For GGCAGAGCUCAAAACGGCGUGGCAAAGUGGCUGGGGCUAGACUGCC [C13A A16G U34G], the self-cleavage was 0.01.
Work on GGCAGAGCUCAAAACACCGUGGCAAAAUGGCUGAGGCUAGACUGCC [C13A G17C G27A U34A] yielded a self-cleavage of 0.01.
In the case of GGCAGAGCUCAAAAUAGCGUGACAAAGUGGCUGUGGCUAGACUGCC [C13A C15U G22A], the self-cleavage is reported as 0.07.
With GGCAGAGCUCAAAACUGCGUGGCAAAGUGGCUGUGGAUAGACUGCC [C13A A16U C37A] the self-cleavage was 0.03.
GGCAGAGCUCAAAACUGCGUGGCCAAGUGGCUGAGGAUAGACUGCC [C13A A16U A24C U34A C37A] gave a self-cleavage of 0.02.
Work on GGCAGAGCUCAAAACACCGUGGCAUAGUGGCUGUGGCUAAACUGCC [C13A G17C A25U G40A] yielded a self-cleavage of 0.06.
Variant GGCAGAGCUCAAAACAGCGUGUCAAAGUGGCUGUGGCUAGACCGCC [C13A G22U U43C] has a self-cleavage of 0.12.
For GGCAGAGCUCAAAACAGCGUGGCAAAGUGCUUGUGGCUAGACUGUC [C13A G30C C31U C45U], the self-cleavage was 0.06.
With GGCAGAGCUCAAAACCGCGUGGCAAAGUGGCUGUAGCUAGACUGCC [C13A A16C G35A] the self-cleavage was 0.05.
In the case of GGCAGAGCUCAAAACAGCGUGACAUAGUGGCUGUGGCUAGACUGCC [C13A G22A A25U], the self-cleavage is reported as 0.08.
GGCAGAGCUCAAAACAGCGUGGCAAAGUGCCUGUGGCUAGACUGAC [C13A G30C C45A] showed a self-cleavage of 0.07.
In the case of GGCAGAGCUCAAAACAGCGUGGCAAAAUGGCUGUGGCUAGACUGCG [C13A G27A C46G], the self-cleavage is reported as 0.08.
Work on GGCAGAGCUCAAAACAGUGCGGCAAAGUGGCUGACGCUAGACUGCC [C13A C18U U20C U34A G35C] yielded a self-cleavage of 0.04.
In the case of GGCAGAGCUCAAAGCAGCUUGGCAAAGGGUCUGUGGAUAGACUGAC [C13A A14G G19U U28G G30U C37A C45A], the self-cleavage is reported as 0.01.
For GGCAGAGCUCAAAACAUCGUGGCAAAGUGGCUGUGGCUAUACUGCC [C13A G17U G40U], the self-cleavage was 0.03.
Variant GGCAGAGCUCAAAACAUCGUUGCAAAGUGUCUGUGGCUAGACUGCC [C13A G17U G21U G30U] has a self-cleavage of 0.04.
With GGCAGAGCUCAAAAAAGCGUGGCCAAGUGGCUGUGGCUAGACUGCC [C13A C15A A24C] the self-cleavage was 0.03.
GGCAGAGCUCAAAACAGCGUGGCAAAGUGGCUGUGGCUUGGCUGCC [C13A A39U A41G] showed a self-cleavage of 0.07.
In the case of GGCAGAGCUCAAAACAGCGUGGCAAACUGGCUGUGACUAGACUGCC [C13A G27C G36A], the self-cleavage is reported as 0.25.
Variant GGCAGAGCUCAAAACAGCGCGGCAAAGUCGCUUUGGCUAAACCGCC [C13A U20C G29C G33U G40A U43C] has a self-cleavage of 0.01.
Work on GGCAGAGCUCAAAACAGCGUGGAAAAGUGGACGUGGCUAGACUGCC [C13A C23A C31A U32C] yielded a self-cleavage of 0.05.
Work on GGCAGAGCUCAAAACAUCGUGGCAAAGUGGCUGUGGAUAGACUGCC [C13A G17U C37A] yielded a self-cleavage of 0.05.
GGCAGAGCUCAAAACAUCGUGGCAAAGUGGACUUGGCUAGACUGCC [C13A G17U C31A U32C G33U] showed a self-cleavage of 0.04.
Variant GGCAGAGCUCAAAACAGCUUGCCACAGUGGCUGUGGCAAGACUGCC [C13A G19U G22C A25C U38A] has a self-cleavage of 0.01.
GGCAGAGCUCAAAACAGCGUGGCACAGUGGCUGAGGCUAGACUACC [C13A A25C U34A G44A] showed a self-cleavage of 0.06.
Work on GGCAGAGCUCAAAACAGCGUGACAAAGUGCCUGUGGCUAGAUUGCC [C13A G22A G30C C42U] yielded a self-cleavage of 0.11.
GGCAGAGCUCAAAAAAGCGUGGCAAAGUGGAUGUGCCUAGCCUGCC [C13A C15A C31A G36C A41C] gave a self-cleavage of 0.02.
Work on GGCAGAGCUCAAAACAGCGUGGCAAAGUGGCUGUUGCUAGAGUCCC [C13A G35U C42G G44C] yielded a self-cleavage of 0.05.
GGCAGAGCUCAAAACAGCGUGGCAAAGUGGCUGGGGCUAGUCUGCC [C13A U34G A41U] showed a self-cleavage of 0.29.
For GGCAGAGCUCAAAACAGCAUGGCAAAGUGGCUGUGGCUAGACUCCU [C13A G19A G44C C46U], the self-cleavage was 0.03.
In the case of GGCAGAGCUCAAAACAGCCUGGCAAAGUGGCUGUGGCUAGACGGUC [C13A G19C U43G C45U], the self-cleavage is reported as 0.04.
GGCAGAGCUCAAAACAGCGUGGCAGCGUGGCUGUGGCUAGACUGCG [C13A A25G A26C C46G] gave a self-cleavage of 0.02.
GGCAGAGCUCAAAGCACCGUGGCAAAGUGGCUGUGGCCAGACUGCC [C13A A14G G17C U38C] gave a self-cleavage of 0.08.
GGCAGAGCUCAAAACAGUGUGGAAAAGUCGCUGUGGCUAAACUGCC [C13A C18U C23A G29C G40A] gave a self-cleavage of 0.02.
Work on GGCAGAGCUCAAAACAGCGUGGCAAUGGGGCUGUGGCUAGGCAGCC [C13A A26U U28G A41G U43A] yielded a self-cleavage of 0.11.
